Test results: PubChem BioAssay AID624172 (National Center for Advancing Translational Sciences (NCATS), 2012)
The campaign covered roughly 380,000 compounds. About 25 (0.007%) were called active. Inconclusive results, whose numbers are uncertain, are shown with a selection of clear calls. The call rests on the fitted dose curve; in most records, active means well fitted activation curve with a large enough effect; inconclusive means small, poorly fitted or top-dose-only effect; inactive means no such curve, though single readings can be large or run the other way. Potencies of inconclusive entries are left out as doubtful fits.

What follows are compounds tested against Glucagon-like peptide 1 receptor (Homo sapiens) (UniProt P43220) (assay: qHTS of GLP-1 Receptor Agonists). Conditions: HEK293 GLP-1R CRE-luciferase, luminescence, 4-6 h, cells express a hypersensitive GLP-1R form; activation: at 45.6 µM (top of the series) unless noted.
Sequence of UniProt P43220 (P43220 whole entry, looked up): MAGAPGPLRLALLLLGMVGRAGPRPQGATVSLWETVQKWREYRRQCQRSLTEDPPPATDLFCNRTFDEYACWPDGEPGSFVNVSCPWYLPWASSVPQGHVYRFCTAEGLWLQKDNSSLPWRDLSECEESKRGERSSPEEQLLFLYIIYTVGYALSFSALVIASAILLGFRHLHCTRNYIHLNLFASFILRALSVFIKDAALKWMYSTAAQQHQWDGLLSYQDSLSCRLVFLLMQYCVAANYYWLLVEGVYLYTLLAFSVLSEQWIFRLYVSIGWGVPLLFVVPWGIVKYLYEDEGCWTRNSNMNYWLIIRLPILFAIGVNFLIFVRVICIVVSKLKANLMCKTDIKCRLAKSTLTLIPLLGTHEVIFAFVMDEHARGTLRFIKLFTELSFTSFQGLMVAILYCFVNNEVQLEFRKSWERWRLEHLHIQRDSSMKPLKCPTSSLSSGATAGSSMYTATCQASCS
Potency means the concentration at half of the fitted maximal effect; tags describe the fitted curve by direction and shape.
Wherever activation is given: % of control where 0% means no effect.

SMILES | Potency | activation
CCOC(=O)C1CCCN(S(=O)(=O)c2ccc3c(c2)CC(C)N3C(=O)C2CC2)C1 (stereo not given) | inconclusive [activator, single point] | –
O=C(N/N=C/c1cccc([N+](=O)[O-])c1)C1CC1c1ccccc1 (stereo not given) | inconclusive [activator, single point] | –
COCCN(C(=O)COC(=O)/C=C/c1ccc(SC)cc1)c1c(N)n(Cc2ccccc2)c(=O)[nH]c1=O | inactive | –
O=C1CC(/C=C/c2cccnc2)=Nc2ccccc2N1 | inconclusive [activator, single point] | –
O=C(Nc1nnc(S(=O)(=O)N2CCCCCC2)s1)c1ccccc1Cl | inactive | –
Oc1ccc(C(O)CNCCCCCCNCC(O)c2ccc(O)c(O)c2)cc1O (stereo not given) | – | inconclusive: 45.6% [activator]
CCCCN(C)C(=O)c1cc2c(Cl)nc3ccccc3c2s1 | inconclusive [activator, partial curve, poor fit] | –
COc1ccc(-c2nc(C#N)c(NCc3ccc(C)cc3)o2)cc1OC | inconclusive [activator, partial curve, poor fit] | –
CCOC(=O)C1=C(COC(=O)c2ccc(OC)c(OC)c2OC)NC(=O)NC1C (stereo not given) | inconclusive [activator, single point] | –
Brc1ccc(OCCCOc2cccc3cccnc23)cc1 | inconclusive [activator, partial curve, poor fit] | –
CCOc1ccc(CN(C)c2nc(-c3cccnc3)nc3ccccc23)cc1OC | inconclusive [activator, single point] | –
Cc1ccc(-n2nc3c(c2NC(=O)c2ccc(F)c(F)c2)CS(=O)(=O)C3)cc1 | inactive | –
C/C=C/Cn1c(SCCCc2ccccc2)nc2c1c(=O)[nH]c(=O)n2C | inconclusive [activator, partial curve, poor fit] | –
O=C(NCc1cccnc1)C(=O)N/N=C/c1ccccc1[N+](=O)[O-] | inconclusive [activator, single point] | –
COc1ccc([C@H]2C[C@@H](O)[C@H](n3cc(C4CC4)nn3)CN2CC2CCCCC2)cc1 | inactive | –
CCOc1ccc(-c2nnc(NC(=O)COc3ccccc3F)o2)cc1 | – | inconclusive: 40.1% [activator]
CCCCN(C)c1c(C)nc2ccc(C(=O)N(C)Cc3ccco3)cn12 | inactive | –
CC(=O)Nc1ccc(SCCCC(=O)c2ccccc2)cc1 | inconclusive [activator, partial curve, poor fit] | –
COc1ccc(-c2cnc3c(NC=O)cc(-c4ccccc4OC)cn23)cc1OC | inconclusive [activator, full curve, poor fit] | –
Cc1ccc(Sc2ncccc2C(=O)NC2CCCCCC2)cc1C | inconclusive [activator, full curve, poor fit] | –
O=C(CCl)Nc1nc(-c2ccco2)c(-c2ccco2)s1 | inconclusive [activator, partial curve, poor fit] | –
NS(=O)(=O)c1cc2c(cc1C(F)(F)F)NC(Cc1ccccc1)NS2(=O)=O (stereo not given) | inconclusive [activator, single point] | –
O=C1S/C(=C/c2ccc(N3CCOCC3)o2)C(=O)N1Cc1ccc(F)cc1 | inactive | –
CCN(CC)c1nc2c(c(=O)[nH]c(=O)n2C)n1CCOc1ccccc1 | inconclusive [activator, single point] | –

SMILES | Potency | activation
C#CCNc1nc(C(C)C)nc2c1nnn2Cc1ccccc1F | inconclusive [activator, partial curve, poor fit] | –
CCc1nc2sc(C(C)=O)c(N)c2c2c1CCCC2 | inconclusive [activator, partial curve, poor fit] | –
S=c1nc(C2CCCCC2)[nH]c2ccccc12 | inconclusive [activator, partial curve] | –
O=C(OCc1nnc(-c2ccccc2)o1)c1ccc(CO)cc1 | inactive | –
CCOC(=O)c1c(C)nn(-c2ccc(NC(=O)/C=C/C(=O)O)cc2)c1C | inconclusive [activator, full curve, poor fit] | –
Cc1cc(=O)oc2c3c(cc(OCC(=O)NC(C)C)c12)OC(C)(C)CC3 | inconclusive [activator, partial curve] | –
COc1ccccc1N1CCN(/N=C/C=C\c2ccco2)CC1 | inactive | –
CCOC(=O)c1c(-c2ccc(-c3ccccc3)cc2)csc1NC(=O)CNCCN(C)C | inactive | –
COc1ccc(CNc2nc3ccccc3s2)cc1OC | inconclusive [activator, single point] | –
O=C(NCCNC(=O)c1ccc(-c2ccc(Cl)c(Cl)c2)o1)c1cnccn1 | inconclusive [activator, partial curve, poor fit] | –
c1ccc(CN2CCN(c3cnc4ccccc4n3)CC2)cc1 | inconclusive [activator, partial curve] | –
COc1ccc(-c2noc(CN(C(=O)c3ccc4c(c3)OCO4)C(C)C)n2)cc1OC | inconclusive [activator, single point] | –
COc1cc2c(cc1OC)/C(=C/C(=O)c1ccc(OC)c([N+](=O)[O-])c1)NCC2 | inconclusive [activator, full curve] | –
O=C(CN1CCOCC1)Nc1ccc(OCc2ccccc2)cc1 | inactive | –
CSc1nc(SCCN(C)C)c2c3c(sc2n1)COC(C)(C)C3 | inconclusive [activator, partial curve, poor fit] | –
O=C(Nc1ccccc1N1CCCC1)c1ccc2ccccc2c1 | inconclusive [activator, single point] | –
Nc1ccc(N2CCCCC2)cc1N1CCCCC1 | inactive | –
CC(C)Nc1nc(Cl)nc(NCCOc2ccccc2)n1 | inconclusive [activator, partial curve] | –
CCOC(=O)c1cnc2c(c(C)nn2CC)c1NC1CC1 | inconclusive [activator, partial curve, poor fit] | –
COC(=O)c1cc(CSc2nnc(NC3CCCCC3)s2)oc1C | inconclusive [activator, full curve, poor fit] | –
CC(=NNC(=S)Nc1ccc(C)cc1)c1ccccn1 | inconclusive [activator, single point] | –
COc1cc2oc(=O)ccc2cc1[C@H](O)[C@@H](O)C(C)(C)O | inactive | –
O=C(CNCC1CCCO1)Nc1ccccc1N1CCCCCC1 (stereo not given) | inconclusive [activator, partial curve, poor fit] | –
COc1ccc(CNC(=O)c2ccc(-c3cnn(C)c3)c3ccoc23)cc1OC | inconclusive [activator, partial curve] | –

SMILES | Potency | activation
C/C(=N\NC(=S)NCc1ccccc1)c1cccs1 | inactive | –
COc1ccc(-c2oc3ccccc3c(=O)c2OC(=O)c2ccc(C)cc2)cc1 | inactive | –
COc1ccc(C2=Nn3c(nnc3-c3ccccc3Cl)SC2)cc1OCC1CC1 | inconclusive [activator, partial curve] | –
COc1ccc(CNCCCn2cnc(C(=O)Nc3ccc(C)c(C)c3)n2)cc1 | inactive | –
CCOc1cc(N2CCOCC2)c(OCC)cc1NC(=O)C(C)Oc1ccccc1 (stereo not given) | inconclusive [activator, single point] | –
COc1ccc(C(=O)CSc2nc(C)cc(=O)[nH]2)cc1 | inactive | –
COc1ccc(OCC(=O)N2CCC(Cc3ccccc3)CC2)cc1 | inactive | –
COc1ccc(-c2noc(C3CCCN(C(=O)c4c(F)cccc4F)C3)n2)cc1OC (stereo not given) | inconclusive [activator, single point] | –
COc1cc(NC(=S)NCc2ccc(S(N)(=O)=O)cc2)c(OC)cc1Cl | inactive | –
O=[N+]([O-])c1ccccc1/C=C/c1ccc2ccccc2n1 | inconclusive [activator, partial curve, poor fit] | –
O=C(Nc1ccncc1)C1CCCN(S(=O)(=O)c2cccc3cccnc23)C1 (stereo not given) | inactive | –
Cc1ccc(NC(=O)C2(C)CCN2C(=O)CCC2CCCC2)cc1C (stereo not given) | inconclusive [activator, partial curve, poor fit] | –
COc1cccc(C(=O)O/N=C(\N)Cc2ccc(Cl)cc2)c1 | inconclusive [activator, partial curve, poor fit] | –
CCOC(=O)c1c(NC(=O)CC)sc2c1CCN(Cc1ccccc1)C2 | inconclusive [activator, single point] | –
CCOc1ncccc1C(=O)Nc1ccc(S(=O)(=O)NC2=NCCCCC2)cc1 | inactive | –
COC(=O)c1sc(NC(=O)CSc2nc3cccnc3n2C2CCCCC2)nc1C | inconclusive [activator, full curve] | –
N#Cc1ccc2ccn(CC(=O)NC3CCCCCC3)c2c1 | inactive | –
CCOC(=O)c1oc2ccc(Br)cc2c1NC(=O)CN1CCN(C)CC1 | active: 10 µM | –
Cc1cccc(C(=O)NC(=S)Nc2ccc(N3CCOCC3)cc2)c1 | inactive | –
COC(=O)c1ccc(CSc2nc(C(F)F)cc(C)c2C#N)o1 | inconclusive [activator, single point] | –
COc1ccc(C(=O)C(CN2CCOCC2)c2ccccc2)cc1F (stereo not given) | inactive | –
COC(=O)C1=C(C)N(Cc2cccnc2)C(=O)/C1=C\c1sccc1C | inconclusive [activator, partial curve, poor fit] | –
